Screen size: about 310,000 compounds; about 2,200 (0.71%) showed an effect of 50% or more. The effect is printed as a negative number. The list shows a part of the results. Where a SMILES comes first, the peptide text is derived from it. The star is where a group is joined. OBn = c1ccc(CO*)cc1
These compounds were tested against human ether-à-go-go-related gene (hERG) potassium channel (human, UniProt Q12809) (assay: primary screen, population patch clamp on CHO cells stably expressing hERG).
human ether-à-go-go-related gene (hERG) potassium channel, sequence (Q12809 whole entry, looked up): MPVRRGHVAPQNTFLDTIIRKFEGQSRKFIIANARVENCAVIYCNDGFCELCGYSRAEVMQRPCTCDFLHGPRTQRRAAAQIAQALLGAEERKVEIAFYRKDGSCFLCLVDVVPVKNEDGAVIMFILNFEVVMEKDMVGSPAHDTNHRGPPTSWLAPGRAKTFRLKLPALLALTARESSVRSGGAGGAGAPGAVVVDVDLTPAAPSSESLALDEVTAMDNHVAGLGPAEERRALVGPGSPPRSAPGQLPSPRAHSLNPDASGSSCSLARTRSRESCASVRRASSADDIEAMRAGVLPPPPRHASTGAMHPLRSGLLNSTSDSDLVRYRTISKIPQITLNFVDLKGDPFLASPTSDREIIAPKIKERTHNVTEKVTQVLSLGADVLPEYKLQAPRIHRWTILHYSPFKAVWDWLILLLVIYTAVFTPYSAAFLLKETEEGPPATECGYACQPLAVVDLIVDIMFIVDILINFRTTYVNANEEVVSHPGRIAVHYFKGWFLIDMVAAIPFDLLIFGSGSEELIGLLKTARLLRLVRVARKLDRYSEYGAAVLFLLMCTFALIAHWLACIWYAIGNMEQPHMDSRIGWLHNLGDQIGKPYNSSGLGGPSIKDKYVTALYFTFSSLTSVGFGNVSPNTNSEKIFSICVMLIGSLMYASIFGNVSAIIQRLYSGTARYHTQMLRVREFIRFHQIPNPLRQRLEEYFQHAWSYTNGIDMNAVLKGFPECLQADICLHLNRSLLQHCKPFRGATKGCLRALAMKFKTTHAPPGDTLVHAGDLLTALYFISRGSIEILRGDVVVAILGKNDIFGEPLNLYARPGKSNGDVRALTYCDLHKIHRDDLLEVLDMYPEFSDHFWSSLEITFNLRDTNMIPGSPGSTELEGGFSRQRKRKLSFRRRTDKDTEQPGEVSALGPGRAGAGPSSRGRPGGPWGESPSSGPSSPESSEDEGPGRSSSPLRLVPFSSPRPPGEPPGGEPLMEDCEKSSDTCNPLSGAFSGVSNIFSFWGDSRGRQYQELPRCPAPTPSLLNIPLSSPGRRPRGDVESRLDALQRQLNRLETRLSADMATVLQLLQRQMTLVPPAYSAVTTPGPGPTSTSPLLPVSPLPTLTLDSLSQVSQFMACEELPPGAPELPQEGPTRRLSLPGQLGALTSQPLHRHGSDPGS

| SMILES | hERG current change (%, negative = inhibition) at 1uM |
| --- | --- |
| O=c1oc2ccccc2c(NCc2ccccc2F)c1[N+](=O)[O-] | 5.89% |
| O=[N+]([O-])c1ccc2oc(-c3cccc(O)c3)nc2c1 | -5.21% |
| COc1ccccc1NC(=O)c1cc(Cl)nnc1Cl | 16.9% |
| Cc1ccc2c(c1)c1n[nH]c(=S)nc1n2CCc1ccccc1 | 15.2% |
| CCS(=O)(=O)N1Cc2ccccc2CC1C(=O)Nc1nnc(SCc2ccc(F)cc2)s1 (stereo not drawn) | 9.5% |
| O=C(Nc1ccncc1)Nc1ccc(F)c(Cl)c1 | 5.13% |
| COCCCN(C(=O)c1cc2c(s1)CCCCC2)c1c(N)n(Cc2ccccc2)c(=O)[nH]c1=O | 15.8% |
| COc1ccc(-c2c(C)oc3c(CN4CCCCC4C)c(O)ccc3c2=O)cc1OC (stereo not drawn) | 5.43% |
| O=C(O)C(=O)O.O=C(c1ccco1)N1CCN(Cc2ccccc2Br)CC1 | 13% |
| CCCc1cc(=O)[nH]c(SCC(=O)N(C)C2CCS(=O)(=O)C2)n1 (stereo not drawn) | 16.2% |
| CCOC(=O)Cc1nnc(-c2ccccc2)o1 | 5.78% |
| O=C(O)CCC(=O)Nc1ccc(SSc2ccc(NC(=O)CCC(=O)O)cc2)cc1 | 3.15% |
| CCCCNC(=O)CSc1nccn1Cc1ccccc1 | 3.24% |
| COc1ccc(/C=N/Nc2nnc(C)n2N)cc1OC | 16% |
| Cl.c1ccc2c(N3CCNCC3)nsc2c1 | 4.28% |
| COc1cc(/C=N\Nc2nc(-c3cccs3)c(NC(C)=O)s2)ccc1O | 7.02% |
| COc1ccc(-c2nnc(N3CCC(C)CC3)c3ccccc23)cc1 | 6.74% |
| O=C(c1ccc(CN2CCOCC2)cc1)N1CCN(Cc2ccccc2)CC1 | 15.6% |
| COc1ccc(/C=N/NC(=O)CSc2ccccc2)cc1OC | -3.14% |

| SMILES | hERG current change (%, negative = inhibition) at 1uM |
| --- | --- |
| CCn1c2ccccc2c2cc(CN3CCN(S(C)(=O)=O)CC3)ccc21.O=C(O)C(=O)O | 9.03% |
| CCOC(=O)C1(Cc2cccc(OC)c2)CCCN(S(=O)(=O)N(C)C)C1 (stereo not drawn) | 10.7% |
| CC1=CS(=O)(=O)CC1SC1=Nc2ccccc2[NH2+]1.[Br-] (stereo not drawn) | 7.34% |
| COc1ccc(NS(=O)(=O)c2ccc(N/N=C/c3ccc(N4CCOCC4)cc3)c([N+](=O)[O-])c2)cc1 | 8.5% |
| c1ccc2c(c1)OCC(c1nn3c(Cn4nnc5ccccc54)nnc3s1)O2 (stereo not drawn) | 6.48% |
| CCn1c2ccccc2c2cc(NC(=O)CNCc3ccccc3OC)ccc21 | 13.7% |
| N#CCC(=N)N1CCN(c2ccccc2)CC1 | 6.41% |
| Cc1nc2ccccc2c2oc(C(=O)NCc3ccc4c(c3)OCO4)cc12 | 1.72% |
| N#CC(c1ccc(Cl)cc1)c1cccc(Cl)n1 (stereo not drawn) | 13.9% |
| CC(=O)NCC(=O)N[C@@H](CC(=O)OCc1ccccc1)C(=O)OCc1ccccc1 (Ac-Gly-Asp(OBn)-OBn) | 7.23% |
| COc1ccc(C(=O)Nc2cc(S(=O)(=O)N3CCCCC3)ccc2OC)cc1 | 15.5% |
| CCc1ccc(NCc2cc3c(C)nn(-c4ccccc4)c3[nH]c2=O)cc1 | 20% |
| C=CC(C)C(C(=O)c1ccccc1)N(C)C (stereo not drawn) | 22.2% |
| CC1CC(C)CN(CC(O)COCc2ccccc2F)C1.Cl (stereo not drawn) | -2.43% |
| CCN1/C(=C2/SC(=S)N(NC(C)=O)C2=O)Sc2ccc(OC)cc21 | 8.25% |
| C=CCn1c(O)c(N=O)c2cc(C)ccc21 | 8.91% |
| C=CCNc1nnc(Cl)c2ccccc12 | -13.1% |
| C=CCN(C(=O)Nc1ccc(F)cc1)C1CC(=O)N(c2ccc(OC)cc2)C1=O (stereo not drawn) | -0.731% |
| COc1cc(C(CC(=O)N2CCCC2)c2c(OC)cc(OC)c3ccc(=O)oc23)cc(OC)c1OC (stereo not drawn) | 17.4% |

| SMILES | hERG current change (%, negative = inhibition) at 1uM |
| --- | --- |
| COc1ccc(C2c3c(ncn(Cc4ccco4)c3=N)Oc3ccc4ccccc4c32)cc1 (stereo not drawn) | 4.97% |
| COCCn1c(=NC(=O)/C=C/c2ccccc2Cl)sc2cc(NC(C)=O)ccc21 | 1.65% |
| Fc1ccc(/C=N/Nc2nnnn2-c2ccccc2)cc1 | 6.97% |
| CCCCOCCCNC(=O)c1ccccc1OCC | 5.26% |
| COCCNC(=O)c1ccc(-n2c(SCc3ccncc3)nc3ccccc3c2=O)cc1 | 3.33% |
| COC(=O)CSc1nc2sc3c(c2c(=O)[nH]1)CCC3 | 8.7% |
| O=C(COC(=O)c1ccc(S(=O)(=O)N2CCCC2)cc1)Nc1ccccc1 | 2.33% |
| CCc1ccc2[nH]c(=O)c(C(c3nnnn3CCOC)N3CCN(c4ccc(F)cc4)CC3)cc2c1 (stereo not drawn) | 1.97% |
| CC(=O)N(c1ccccc1)c1nc(/C=C/C(=O)O)cs1 | 16% |
| O=C(CN(C(=O)CNS(=O)(=O)c1ccc(F)cc1)c1ccccc1)NCc1ccco1 | 3.48% |
| COc1ccc(C(C)=O)cc1COc1cc(C)c(Cl)c(C)c1 | 12.5% |
| CC(=O)c1cc(-c2ccccc2)n(CCC(=O)NC2CCC(C)CC2)c1C (stereo not drawn) | 12.5% |
| Cc1nn2cc(-c3cccc(Cl)c3)cnc2c1Br | 4.01% |
| Cc1cc(C)nc(SCc2nnc(SCC(=O)OC3CCCCC3)o2)n1 | 9.68% |
| COc1cc(CNn2cn[nH]c2=S)ccc1OCC(=O)NC(C)(C)C | 9% |
| O=C(O)C1CCCN1S(=O)(=O)c1ccc2ccccc2c1 (stereo not drawn) | 21% |
| CCOC(=O)C1CCN(C(=O)Nc2ccc(OCc3ccccc3)cc2)CC1 | 9.36% |
| COc1ccc(OC)c(Nc2nc(C)nc3c2oc2ccccc23)c1 | 12.7% |
| CCCCN(C(=O)c1ccc2c(c1)S(=O)(=O)N=C1CCCCCN12)c1c(N)n(CCCC)c(=O)[nH]c1=O | 13.6% |
